Assay results reported in PubChem BioAssay AID504339 (National Center for Advancing Translational Sciences (NCATS), 2011).
The campaign covered roughly 390,000 compounds. About 17,000 (4.4%) were called active. This list was built around the results that the source calls inconclusive (neither active nor inactive); the mix of calls is not that of the screen. Calls follow the shape of the dose curve; as a rule, active = well fitted inhibition curve with a large enough effect; inconclusive = small, poorly fitted or top-dose-only effect; inactive = no such curve, though single readings can be large or run the other way. A potency beside an inconclusive call is a rough fit, not a confirmed value.

These compounds were tested against Lysine-specific demethylase 4A (Homo sapiens) (UniProt O75164) (assay: qHTS Assay for Inhibitors of JMJD2A-Tudor Domain). Settings: AlphaScreen JMJD2A-Tudor / H3K4me3 peptide binding; activity change, negative = inhibition: at 114 µM (top of the series).
Sequence of UniProt O75164 (O75164 whole entry, looked up, the tested form may be a part): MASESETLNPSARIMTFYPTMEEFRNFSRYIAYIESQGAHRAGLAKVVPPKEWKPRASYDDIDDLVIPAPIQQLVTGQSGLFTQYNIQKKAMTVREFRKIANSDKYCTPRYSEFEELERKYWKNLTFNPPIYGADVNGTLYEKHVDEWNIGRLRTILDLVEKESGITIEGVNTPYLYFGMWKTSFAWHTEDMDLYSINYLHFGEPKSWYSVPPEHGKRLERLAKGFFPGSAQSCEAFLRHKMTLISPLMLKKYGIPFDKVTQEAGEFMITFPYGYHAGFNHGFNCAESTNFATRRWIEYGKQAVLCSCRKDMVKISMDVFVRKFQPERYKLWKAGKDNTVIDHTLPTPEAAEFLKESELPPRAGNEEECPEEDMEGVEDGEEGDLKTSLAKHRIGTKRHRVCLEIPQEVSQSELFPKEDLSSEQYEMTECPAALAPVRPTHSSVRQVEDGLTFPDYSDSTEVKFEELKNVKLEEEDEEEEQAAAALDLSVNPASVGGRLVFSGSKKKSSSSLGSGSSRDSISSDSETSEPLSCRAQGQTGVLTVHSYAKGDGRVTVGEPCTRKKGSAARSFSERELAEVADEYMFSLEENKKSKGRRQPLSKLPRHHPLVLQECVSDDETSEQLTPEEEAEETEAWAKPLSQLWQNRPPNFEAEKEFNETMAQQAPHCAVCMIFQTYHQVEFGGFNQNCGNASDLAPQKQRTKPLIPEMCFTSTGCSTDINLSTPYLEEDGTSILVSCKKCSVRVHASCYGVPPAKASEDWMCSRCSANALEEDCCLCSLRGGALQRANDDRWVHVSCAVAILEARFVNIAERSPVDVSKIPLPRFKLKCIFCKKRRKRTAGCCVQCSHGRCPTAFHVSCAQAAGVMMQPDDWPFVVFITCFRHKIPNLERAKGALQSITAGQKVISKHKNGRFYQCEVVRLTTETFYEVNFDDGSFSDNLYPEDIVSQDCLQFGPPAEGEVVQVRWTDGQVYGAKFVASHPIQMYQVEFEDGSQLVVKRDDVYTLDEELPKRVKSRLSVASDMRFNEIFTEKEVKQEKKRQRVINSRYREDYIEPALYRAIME
% is scaled to controls: 0 for no effect and ±100 for the full control effect; potency is read from the fitted curve at half-maximal effect; tags tell the direction and shape of the fitted curve.
Also: nearly all actives have a fitted effect of over 50% in size.

| SMILES | Potency | activity change, negative = inhibition |
| --- | --- | --- |
| O=C(NCc1ccc(F)cc1)C1CCN(c2ncnc3c2nc2n3CCCCC2)CC1 | inactive | – |
| COC(=O)C1=C(C)N=c2s/c(=C/c3ccoc3)c(=O)n2C1c1ccccc1 (stereo unspecified) | inconclusive: 17.8 µM [inhibitor, full curve] | – |
| Cc1ccc(CN2CCC(C(=O)NCCC(C)C)CC2)o1 | active: 44.7 µM | – |
| C=CCOc1ccccc1CNc1ccc2[nH]c(=O)[nH]c2c1 | inconclusive: 44.7 µM [inhibitor, partial curve] | – |
| CC(=O)c1ccc(-c2ccc(C(=O)N3CCCc4ccccc43)o2)cc1 | inconclusive: 63.1 µM [inhibitor, partial curve] | – |
| Nc1nc(Nc2ccccc2F)sc1C(=O)c1ccccc1 | inconclusive: 44.7 µM [inhibitor, partial curve] | – |
| O=C(c1ccc2c(c1)CCN2S(=O)(=O)c1ccc(Cl)cc1)N1CCN(c2ccccc2)CC1 | inactive | – |
| COC(=O)Nc1cc(C(=O)c2ccc(Cl)cc2Cl)c[nH]1 | inconclusive: 63.1 µM [inhibitor, partial curve] | – |
| CCOC(=O)c1c(C)oc2c1c(C(c1ccncc1)N1CCOCC1)c(O)c1ccccc12 (stereo unspecified) | inconclusive: 50.1 µM [inhibitor, partial curve] | – |
| O=C(O)CN1C(=O)/C(=C\c2ccc(OC(=O)c3ccco3)cc2)SC1=S | inconclusive: 39.8 µM [inhibitor, single point] | – |
| O=S(=O)(Nn1cnnc1)c1ccccc1Cl | – | inactive: -6.85% [at 11.4 µM] |
| Cc1c(C(=O)OCC2CCCO2)[nH]c2c1C(=O)CC(c1ccco1)C2 (stereo unspecified) | inconclusive: 25.1 µM [inhibitor, partial curve] | – |
| c1ccc(CN2CCC3(CC2)Nc2ccccc2S3)cc1 | inconclusive: 56.2 µM [inhibitor, partial curve] | – |
| CC(=O)Nc1ccc(S(=O)(=O)NCc2cccn2Cc2cccc(C)c2)cc1 | inconclusive: 79.4 µM [inhibitor, partial curve] | – |
| COc1cc2c(=O)n(CCCN3CCOCC3)c(=S)[nH]c2c(OC)c1OC | active: 31.6 µM | – |
| Cc1ccc(OCCCCN(C)Cc2ccccc2)c(Br)c1 | inconclusive: 0.708 µM [inhibitor, full curve, poor fit] | – |
| Cc1ccc(-c2cnc(NC(=O)CCC(=O)N(C)Cc3ccccc3)n2C)cc1 | inconclusive: 31.6 µM [inhibitor, full curve] | – |
| CC(C)C1N=C2c3ccccc3N=C(SCC(=O)NCc3ccccc3Cl)N2C1=O (stereo unspecified) | inactive | – |
| O=C(C1=C[C@@H](C2CCCCC2)C[C@@H](OCc2ccc(CO)cc2)O1)N1CCN(Cc2ccccc2)CC1 | inconclusive: 44.7 µM [inhibitor, partial curve] | – |
| Cc1ccc(NC(=O)c2cncc(Br)c2)c(O)c1 | inactive | – |
| CC(=O)OCON[N+]([O-])=NC1CCCCC1 | active: 20 µM | – |
| COc1ccc(N(CC(=O)Nc2ccccc2OC)S(=O)(=O)c2ccccc2)cc1Cl | inactive | – |
| COc1cc([N+](=O)[O-])ccc1NC(=O)CCN1C(=O)C2C3CCC(C3)C2C1=O (stereo unspecified) | inactive | – |
| CC(=O)c1c(COC(=O)c2cccc(C)c2)nc2ccccc2[n+]1[O-] | inconclusive: 39.8 µM [inhibitor, full curve, poor fit] | – |
| COc1ccccc1-n1ccnc1SCC(=O)NCC1CCCO1 (stereo unspecified) | inactive | – |
| COc1ccc(N2CCN(CC(=O)Nc3cc(C)cc(C)c3)CC2)cc1 | inconclusive: 56.2 µM [inhibitor, partial curve] | – |

| SMILES | Potency | activity change, negative = inhibition |
| --- | --- | --- |
| COc1ccc(Cn2ccc3nc(C)c(C(=O)N4CCN(c5ccccc5OC)CC4)cc3c2=O)cc1 | inactive | – |
| O=C(NNc1ccccc1)Nc1cc(Cl)ccc1Cl | inconclusive: 20 µM [inhibitor, full curve] | – |
| O=C1CCc2cc(Br)ccc2O1 | inactive | – |
| COc1ccc(-c2noc(CSc3nc(C)cc(=O)[nH]3)n2)cc1OC | inactive | – |
| COc1ccc(S(=O)(=O)NC(Cc2cnc[nH]2)C(=O)O)cc1 (stereo unspecified) | active: 12.6 µM | – |
| CC(C)CCn1c(N2CCCC2)nc2c1c(=O)[nH]c(=O)n2C | inactive | – |
| COc1cccc(CN2C(=O)[C@H]3Cc4c([nH]c5ccccc45)C(C)(C)N3C2=O)c1 | inconclusive: 28.2 µM [inhibitor, full curve] | – |
| Cc1ccc(-c2csc(NC(=O)C[n+]3cc(-c4ccc(C)cc4)n4c3CCC4)n2)cc1 | inconclusive: 50.1 µM [inhibitor, partial curve] | – |
| COc1ccc(N2CCn3c2nc2c3c(=O)n(CCCc3ccccc3)c(=O)n2C)c(OC)c1 | inconclusive: 12.6 µM [inhibitor, full curve, poor fit] | – |
| CCOc1ccccc1Nc1nnc(Cc2ccccc2Cl)c(=O)[nH]1 | inconclusive: 56.2 µM [inhibitor, partial curve] | – |
| CCSc1nnc(NC(=O)Cn2cnc3c2c(=O)n(C)c(=O)n3C)s1 | inconclusive: 39.8 µM [inhibitor, single point] | – |
| O=C(NC(=S)Nc1cccc2ncccc12)c1cccs1 | inactive | – |
| COc1ccc(NC(=O)c2cc(C)nc3c2c(C)nn3-c2cccc(Cl)c2C)c(OC)c1 | inactive | – |
| CN(C)CCOc1ccccc1Cc1ccccc1 | inactive | – |
| Clc1ccc(CNc2ccc(CNc3ncn[nH]3)cc2)cc1 | inconclusive: 56.2 µM [inhibitor, partial curve, poor fit] | – |
| CC(=O)Nc1ccc2nc(SCC(=O)NCCOc3ccccc3)sc2c1 | inconclusive: 14.1 µM [inhibitor, single point] | – |
| CC(=O)Nc1ccc(S(=O)(=O)Nc2cc([N+](=O)[O-])ccc2C)cc1 | active: 10 µM | – |
| Cc1cc(CN(C)C(=O)CC2C(=O)NCCN2Cc2ccc(F)c(F)c2)on1 (stereo unspecified) | inactive | – |
| [O-]/[N+](=C\c1ccccc1)c1ccc(Br)cc1 | inconclusive: 12.6 µM [inhibitor, full curve, poor fit] | – |
| COc1ccc(-c2c(-c3ccsc3)oc3ccc(N4CCOCC4)cc23)cc1 | inconclusive: 17.8 µM [inhibitor, full curve] | – |
| O=C(CSc1nnc(-c2ccncc2)n1-c1ccc(F)cc1)NC(=O)NCc1ccco1 | inconclusive: 50.1 µM [inhibitor, partial curve, poor fit] | – |
| Cc1cc(C)cc(-n2ccnc(NCc3ccc(F)cc3)c2=O)c1 | inconclusive: 56.2 µM [inhibitor, partial curve] | – |
| Cc1cc(C)c(NC(=O)c2cccc(NC(=O)c3ccco3)c2)c(C)c1 | inactive | – |
| COCCCNCCCOc1ccc(C)cc1Br | active: 3.55 µM | – |
| O=C(NCC(c1ccco1)N1CCc2ccccc2C1)c1ccc(Cl)c([N+](=O)[O-])c1 (stereo unspecified) | inconclusive: 31.6 µM [inhibitor, full curve, poor fit] | – |
| Cc1ccn2c(-c3csc(NCc4ccco4)n3)c(C)nc2c1 | active: 100 µM | – |

| SMILES | Potency | activity change, negative = inhibition |
| --- | --- | --- |
| Cn1cc(SCC(=O)Nc2ccc3c(c2)OCO3)c2ccccc21 | inactive | – |
| Cc1nn(C)c(C)c1S(=O)(=O)N1CCCC(C(=O)NC2CCCCCC2)C1 (stereo unspecified) | inactive | – |
| Cc1[nH]n(-c2ccccc2)c(=O)c1/C=N/NC(=O)COc1ccccc1[N+](=O)[O-] | active: 79.4 µM | – |
| Cc1ccccc1NC(=O)Cn1cnc2c(oc3nc4c(cc32)CCCC4)c1=O | inactive | – |
| O=C(O)/C=C\C(=O)Nc1ccccc1N1CCN(c2ccccc2)CC1 | inactive | – |
| CCCCCn1c(CNC(=O)c2ccc(F)cc2)nc2ccccc21 | inactive | – |
| CCCCCCCCCc1nc2sc3c(c2c(=O)n1NC(=O)c1ccccc1[N+](=O)[O-])CC(C)(C)OC3 | inconclusive: 17.8 µM [inhibitor, full curve] | – |
| Nc1nonc1-n1nnc(C(=O)N/N=C/c2cccc(Cl)c2)c1CN1CCCC1 | inconclusive: 28.2 µM [inhibitor, full curve] | – |
| Cc1nn(CC(=O)N2CCN(c3cccc(Cl)c3)CC2)c(=O)c2c1sc1ccccc12 | inactive | – |
| Cc1ccc(NC(=O)c2ccccc2OCc2ccc([N+](=O)[O-])cc2)nc1 | inactive | – |
| Cc1cc(C)c2c3c(sc2n1)C(c1cccc(F)c1)C(C#N)=C(N)O3 (stereo unspecified) | inconclusive: 39.8 µM [inhibitor, partial curve] | – |
| CC(C)CCNC(=O)c1ccc(Cn2c(SCC(N)=O)nc3ccccc3c2=O)cc1 | inactive | – |
| O=c1sc(Nc2ccccc2)nc2ccccc12 | inactive | – |
| COc1cc(OC)c(NC(=O)NCc2cccn2Cc2ccccc2)cc1Cl | inconclusive: 8.91 µM [inhibitor, full curve, poor fit] | – |
| CCN(CC)S(=O)(=O)c1cccc(-c2n[nH]c(=S)n2CC(C)C)c1 | active: 10 µM | – |
| O=C1COC(c2ccccc2)C2CCCCN12 (stereo unspecified) | inactive | – |
| O=C(N/N=C/c1c[nH]c2ccccc12)c1[nH]c2ccc(Br)cc2c1-c1ccccc1 | inconclusive: 25.1 µM [inhibitor, partial curve] | – |
| Cc1[nH]n2c(=O)cc(-c3ccc([N+](=O)[O-])cc3)nc2c1-c1ccccc1 | active: 50.1 µM | – |
| OCc1ccc2c(c1)c(-c1ccc3c(c1)OCCO3)c(-c1ccccc1)n2-c1ccccc1 | active: 44.7 µM | – |
| CCOc1cc(CNc2cccc3[nH]c(C)nc23)ccc1OC | inconclusive: 35.5 µM [inhibitor, partial curve] | – |
| COc1cccc(CNc2ccc(N3CCC(C)CC3)cc2)c1OC | active: 20 µM | – |
| CCCCCOC(=O)c1[nH]c2c(c1C)C(=O)CC(c1ccco1)C2 (stereo unspecified) | active: 35.5 µM | – |
| C/C(=N\Nc1nnc(C)c(=O)[nH]1)C(=O)O | inconclusive: 39.8 µM [inhibitor, full curve] | – |
| COc1cc(OC)cc(C(=O)Nc2ccc(NC(=O)c3ccco3)c(Cl)c2)c1 | inconclusive: 44.7 µM [inhibitor, partial curve] | – |
